Experimental data taken from PubChem BioAssay AID504706 (National Center for Advancing Translational Sciences (NCATS), 2011).
The whole screen tested about 320,000 compounds, of which about 200 (0.062%) were called active. Inconclusive results, whose numbers are uncertain, are shown with a selection of clear calls. Calls follow the shape of the dose curve; as a rule, active = well fitted activation curve with a large enough effect; inconclusive = small, poorly fitted or top-dose-only effect; inactive = no such curve, though single readings can be large or run the other way. No potency is given beside an inconclusive call; the fits are too rough.
Potency is read from the fitted curve at half-maximal effect; tags tell the direction and shape of the fitted curve.

Assay: qHTS assay for re-activators of p53 using a Luc reporter; also: nearly all actives have a fitted effect of over 45% in size; as to activity change, positive = activation: % of control where 0% means no effect
Settings: H1299 p53-A138V BP100-luciferase reporter, luminescence, 24 h; series mostly up to 92.2 µM; activity change, positive = activation: at the top concentration
Procedure, shortened: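 p53-null H1299 cells stably carrying temperature-sensitive p53-A138V and a BP100-luciferase reporter were pinned with compounds (4-point, 1:5 series) and held 24 hrs at 37 deg C. Luminescence was read 10 min after detection reagent.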
In the case of `CCCc1nc(N2CCOCC2)c(C#N)c2c1CCCC2`, the “activity change, positive = activation” value is reported as inactive: 3.21%. For `Cc1cccc(-n2ncc3c(NC4CCCCC4)ncnc32)c1`, the Potency was inconclusive [activator, partial curve, poor fit]. With `Cc1ccc(C2=NN(S(C)(=O)=O)C(c3ccc4c(c3)OCO4)C2)cc1` (stereo unspecified) the Potency was inconclusive [activator, partial curve, poor fit]. In the case of `Cc1nn(C)cc1[C@@H]1C[C@H]2CN(Cc3cccc(Cl)c3)C(=O)[C@]23CCCN13`, the Potency is reported as inconclusive [activator, single point]. For `O=C1C(=O)N(c2ccccc2)c2ccccc21`, the Potency was inconclusive [activator, full curve, poor fit]. For `COc1ccc(C(=O)n2c(N)nc3ccccc32)cc1OC`, the Potency was inconclusive [activator, single point]. In the case of `COc1ccc(NC(=O)c2cc(-c3ccc(C)o3)nc3ccccc23)cc1OC`, the Potency is reported as inconclusive [activator, full curve, poor fit]. In the case of `CCOC(=O)c1c(C)nc(C(Cl)(Cl)Cl)nc1N`, the Potency is reported as inconclusive [activator, partial curve, poor fit]. In the case of `O=C(OC(C(=O)NC1CCCC1)c1ccccc1F)c1ccco1` (stereo unspecified), the Potency is reported as inconclusive [activator, single point]. For `S=C(c1ccc(-c2ccccc2Cl)o1)N1CCOCC1`, the Potency was inconclusive [activator, full curve]. For `O=C(Nc1cccs1)Nc1ccc(Br)cc1F`, the Potency was inconclusive [activator, partial curve, poor fit]. For `Clc1ccccc1CSc1nc2ccncc2[nH]1`, the Potency was inconclusive [activator, full curve, poor fit]. With `Cc1ccc(C(c2nnnn2Cc2cccs2)N2CCN(Cc3ccc4c(c3)OCO4)CC2)cc1` (stereo unspecified) the “activity change, positive = activation” value was inactive: 5.43%. With `O=C(C1CC1)N1CCC(C(O)(c2ccccc2)c2ccccc2)CC1` the “activity change, positive = activation” value was inactive: 2.78%. For `Cc1ccc(/C=N/NS(=O)(=O)c2ccccc2)o1`, the Potency was inconclusive [activator, single point]. With `COc1ccc(-c2nnc(NC(=O)c3cc(C)on3)s2)cc1` the Potency was inconclusive [activator, partial curve, poor fit]. For `COc1ccc(/C=C/C(=O)C(C)(C)C)cc1OC`, the Potency was inconclusive [activator, partial curve, poor fit]. With `Cc1cccc(Oc2coc3cc(OC(=O)c4cncc(Br)c4)ccc3c2=O)c1` the Potency was inconclusive [activator, partial curve, poor fit]. With `CCCCCCCCNC(=S)NCCN1CCCCC1` the Potency was inconclusive [activator, partial curve, poor fit]. For `CCN(CC)c1ccc2c(C)c(-c3ccc(N)cc3)c(=O)oc2c1`, the Potency was inconclusive [activator, single point]. In the case of `CC(C)(C)C1=CC(=O)C(N2CCOCC2)=CC1=O`, the Potency is reported as inconclusive [activator, single point]. In the case of `CC(NC(=S)Nc1ccc(F)cc1)c1ccccc1` (stereo unspecified), the Potency is reported as inconclusive [activator, single point]. In the case of `Cc1cc(C(=O)CSc2ncnc3ccccc23)c(C)n1C1CC1`, the Potency is reported as inconclusive [activator, partial curve, poor fit]. In the case of `COc1cccc(N2CCN(C(=O)c3cc4c(s3)CCCCC4)CC2)c1`, the Potency is reported as inconclusive [activator, full curve, poor fit]. In the case of `O=C1c2ccccc2NC(c2ccc(Br)o2)N1O` (stereo unspecified), the Potency is reported as inconclusive [activator, full curve, poor fit]. In the case of `Cc1ccc(/C=N/Nc2ncc(Cl)cc2Cl)s1`, the Potency is reported as inconclusive [activator, full curve, poor fit]. For `COC(=O)/C(=C\C=C\c1ccccc1)NC(=O)c1ccccc1`, the “activity change, positive = activation” value was inactive: -0.453%. For `Cc1ccc(C(=O)/C=C/Nc2ccc(S(=O)(=O)Nc3onc(C)c3C)cc2)cc1`, the Potency was inconclusive [activator, partial curve, poor fit]. For `O=C(NC(Cc1ccccc1)C(=O)O)C1CCCCC1` (stereo unspecified), the Potency was inconclusive [activator, single point]. For `O=C(c1cc(-c2ccco2)on1)N1CCCc2ccccc21`, the Potency was inconclusive [activator, single point]. With `O=c1cc(-c2ccccc2)nc2nc(-c3ccccc3)[nH]n12` the Potency was active: 31.6 µM. With `CN(C)C(=O)COC(=O)c1ccccc1Nc1ccc(SC(F)F)cc1` the Potency was inconclusive [activator, partial curve, poor fit]. In the case of `C[C@H](CO)N1C[C@H](C)[C@@H](CN(C)C(=O)Nc2ccc(C(F)(F)F)cc2)Oc2c(NS(=O)(=O)c3cccs3)cccc2C1=O`, the “activity change, positive = activation” value is reported as inactive: -4.44%. With `CCCCCCn1cnc2c(oc3nc4c(cc32)CCCC4)c1=O` the Potency was inconclusive [activator, full curve, poor fit]. For `CCn1nccc1C(=O)Nc1ccc(C)c(C)c1`, the Potency was inconclusive [activator, partial curve, poor fit]. With `Cc1ccc(C)c(N2CCN(C(=O)CCc3nc(-c4ccc(Br)cc4)no3)CC2)c1` the Potency was inconclusive [activator, partial curve, poor fit]. In the case of `N/C(=N\OC(=O)c1ccc(Br)o1)c1cccnc1`, the Potency is reported as inconclusive [activator, partial curve, poor fit]. With `CCOC(=O)/C=C/COc1ccccc1[N+](=O)[O-]` the Potency was inconclusive [activator, partial curve, poor fit]. With `COc1ccccc1-n1cnnc1SCC(=O)c1cc(C)n(Cc2cccs2)c1C` the Potency was inconclusive [activator, single point]. With `COC(=O)c1c(-c2ccc(OC)cc2)sc2cc3c(cc12)OCO3` the Potency was inconclusive [activator, partial curve, poor fit]. With `COc1ccccc1C(=O)NCC(=O)N=Nc1c(O)n(C(C)C)c2ccccc12` the “activity change, positive = activation” value was inactive: 0.963%. In the case of `COc1ccc(-n2c(O)c(Cc3ccccc3)c(=O)n3nc(-c4ccccc4)c(=O)cc23)cc1`, the Potency is reported as inconclusive [activator, partial curve, poor fit]. In the case of `Cc1ccc2c(CN(C)Cc3cccc(Cl)c3)cc(=O)oc2c1C`, the “activity change, positive = activation” value is reported as inactive: 8.26%. For `CCn1c(SCC(N)=O)nnc1-c1ccc(S(=O)(=O)N2CCN(C)CC2)cc1`, the “activity change, positive = activation” value was inactive: 2.26%. In the case of `O=C1N/C(=N\N=C\c2cccnc2)SC1Cc1ccc(SC(F)F)cc1` (stereo unspecified), the Potency is reported as inconclusive [activator, partial curve, poor fit]. With `CCOC(=O)N1CCN(C(=O)C2CCN(S(=O)(=O)CC)CC2)CC1` the “activity change, positive = activation” value was inactive: 2.45%. With `Cc1ccccc1/C=N/NC(=O)CSc1nc2ccccc2o1` the Potency was inconclusive [activator, partial curve, poor fit]. For `O=c1c(Br)c(N2CCCCC2)cnn1-c1ccccc1`, the Potency was inconclusive [activator, full curve, poor fit]. For `O=C(Oc1ccc2c(=O)c(Cl)coc2c1)c1cccnc1`, the “activity change, positive = activation” value was inactive: 10.6%. In the case of `O=C(Nc1nc2c(F)cccc2s1)c1ccc([N+](=O)[O-])o1`, the Potency is reported as inconclusive [activator, partial curve, poor fit]. For `CCC(=O)c1ccc(OCC(O)CNCc2ccc(F)cc2)cc1` (stereo unspecified), the Potency was inconclusive [activator, partial curve, poor fit]. With `COc1cc(/C=c2\sc3nc(=O)c(-c4ccccc4)nn3c2=O)ccc1OCCC(C)C` the Potency was inconclusive [activator, full curve, poor fit]. For `Cc1ccc(-c2nn(CCC#N)cc2C=C(C#N)C#N)cc1`, the Potency was inconclusive [activator, single point]. With `CCOC(=O)c1c(C)[nH]c(C(=O)COC(=O)C2CC2C)c1C` (stereo unspecified) the Potency was inconclusive [activator, full curve, poor fit]. In the case of `COc1ccc(-c2noc(CCC(=O)O)n2)cc1`, the “activity change, positive = activation” value is reported as inactive: 1.83%. In the case of `COc1cccc(/C=N/N2CCOCC2)c1O`, the Potency is reported as inconclusive [activator, partial curve, poor fit]. With `CCC(CC)C(=O)Nc1cccc(C(=O)Nc2ccc3c(c2)OCO3)c1` the Potency was inconclusive [activator, partial curve, poor fit]. In the case of `CCOC(=O)CC1CCCCN1C(=O)c1ccc2oc(CCc3ccccc3)nc2c1` (stereo unspecified), the Potency is reported as inconclusive [activator, single point]. For `COc1cccc(-c2cc(C(=O)N3CCCc4ccccc43)no2)c1`, the Potency was inconclusive [activator, single point]. With `O=C(/C=C/Nc1ccccc1O)c1ccco1` the Potency was inconclusive [activator, full curve]. In the case of `COc1cc2c(cc1OC)CN(C(=O)CN(C)S(=O)(=O)c1ccc(NC(C)=O)cc1)CC2`, the “activity change, positive = activation” value is reported as inactive: -0.721%. For `Cc1occc1C(=O)N(Cc1nc(-c2ccccc2)no1)C(C)C`, the “activity change, positive = activation” value was inactive: 2.47%. For `CCOC(=O)N/N=C/c1ccc(F)cc1`, the Potency was inconclusive [activator, single point]. In the case of `O=C(/C=C/NNC(=O)c1cccc(Br)c1)c1cccc(Br)c1`, the Potency is reported as inconclusive [activator, single point]. For `CC(=O)CSc1nnc(-c2ccc3c(c2)OCO3)o1`, the Potency was inconclusive [activator, full curve, poor fit]. With `COc1ccc(/C=C/C(=O)NC(=S)NNC(=O)Cc2cccs2)cc1` the Potency was inconclusive [activator, single point].
